The other results are listed elsewhere or left out.
Columns and labels:
Assay in all cases: glycan array binding signal (z-score within array); higher = stronger binding
Conditions in all cases: glycan notation: IUPAC condensed, linker removed; mutation: R349A
GlcNAc(b1-6)GalNAc = target: GlcNAc(b1-6)GalNAc
Method in brief: (§1)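 Negative Z-scores can be read as non-binding. The Z-score is calculated within each array and then averaged across arrays of one protein sequence at different concentrations or buffers and across linkers. Arrays, 3228 in all, were curated from the Consortium for Functional Glycomics database and kept only where the protein sequence was available.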

GlcNAc3Prop(b1-4)GlcNAc = target: GlcNAc3Prop(b1-4)GlcNAc
Method in brief: as §1

Kdn(a2-3)Gal(b1-3)GlcNAc = target: Kdn(a2-3)Gal(b1-3)GlcNAc
Method in brief: as §1

Kdn(a2-3)Gal(b1-4)GlcNAc = target: Kdn(a2-3)Gal(b1-4)GlcNAc
Method in brief: as §1

[1] = target: Man(a1-2)Man(a1-2)Man(a1-3)Man
Method in brief: as §1

[2] = target: Man(a1-2)Man(a1-2)Man(a1-6)[Man(a1-3)]Man
Method in brief: as §1

Man(a1-2)Man(a1-3)Man = target: Man(a1-2)Man(a1-3)Man
Method in brief: as §1

[3] = target: Man(a1-2)Man(a1-3)[Man(a1-2)Man(a1-6)]Man
Method in brief: as §1

[4] = target: Man(a1-2)Man(a1-3)[Man(a1-2)Man(a1-6)]Man(a1-6)[Man(a1-2)Man(a1-2)Man(a1-3)]Man
Method in brief: as §1

[5] = target: Man(a1-2)Man(a1-3)[Man(a1-2)Man(a1-6)]Man(a1-6)[Man(a1-2)Man(a1-2)Man(a1-3)]Man(b1-4)GlcNAc(b1-4)GlcNAc
Method in brief: as §1

[6] = target: Man(a1-2)Man(a1-3)[Man(a1-6)]Man(a1-6)[Man(a1-2)Man(a1-3)]Man(b1-4)GlcNAc(b1-4)GlcNAc
Method in brief: as §1

[7] = target: Man(a1-2)Man(a1-6)[Man(a1-3)]Man(a1-6)[Man(a1-2)Man(a1-2)Man(a1-3)]Man
Method in brief: as §1

[8] = target: Man(a1-2)Man(a1-6)[Man(a1-3)]Man(a1-6)[Man(a1-2)Man(a1-2)Man(a1-3)]Man(b1-4)GlcNAc(b1-4)GlcNAc
Method in brief: as §1

Man(a1-3)[Man(a1-6)]Man = target: Man(a1-3)[Man(a1-6)]Man
Method in brief: as §1

[9] = target: Man(a1-3)[Man(a1-6)]Man(a1-6)[Man(a1-2)Man(a1-3)]Man(b1-4)GlcNAc(b1-4)GlcNAc
Method in brief: as §1

[10] = target: Man(a1-3)[Man(a1-6)]Man(a1-6)[Man(a1-3)]Man
Method in brief: as §1

[11] = target: Man(a1-3)[Man(a1-6)]Man(a1-6)[Man(a1-3)]Man(b1-4)GlcNAc(b1-4)GlcNAc
Method in brief: as §1

[12] = target: Man(a1-3)[Man(a1-6)]Man(b1-4)GlcNAc(b1-4)GlcNAc
Method in brief: as §1

Man(a1-6)Man = target: Man(a1-6)Man
Method in brief: as §1

Man(b1-4)GlcNAc = target: Man(b1-4)GlcNAc
Method in brief: as §1

Neu5Ac(a2-3)Gal = target: Neu5Ac(a2-3)Gal
Method in brief: as §1

[13] = target: Neu5Ac(a2-3)Gal(b1-3)GalNAc
Method in brief: as §1

[14] = target: Neu5Ac(a2-3)Gal(b1-3)GalNAc(b1-3)Gal(a1-4)Gal(b1-4)Glc
Method in brief: as §1

[15] = target: Neu5Ac(a2-3)Gal(b1-3)GalNAc(b1-3)Gal(b1-4)GlcNAc
Method in brief: as §1

[16] = target: Neu5Ac(a2-3)Gal(b1-3)GalNAc(b1-4)[Neu5Ac(a2-3)]Gal(b1-4)Glc
Method in brief: as §1

[17] = target: Neu5Ac(a2-3)Gal(b1-3)GalNAc6S
Method in brief: as §1

[18] = target: Neu5Ac(a2-3)Gal(b1-3)GlcNAc
Method in brief: as §1

[19] = target: Neu5Ac(a2-3)Gal(b1-3)GlcNAc(b1-3)Gal(b1-3)GlcNAc
Method in brief: as §1

[20] = target: Neu5Ac(a2-3)Gal(b1-3)GlcNAc6S
Method in brief: as §1

[21] = target: Neu5Ac(a2-3)Gal(b1-3)[Fuc(a1-4)]GlcNAc
Method in brief: as §1

[22] = target: Neu5Ac(a2-3)Gal(b1-3)[Fuc(a1-4)]GlcNAc(b1-3)Gal(b1-4)[Fuc(a1-3)]GlcNAc
Method in brief: as §1

[23] = target: Neu5Ac(a2-3)Gal(b1-3)[Neu5Ac(a2-3)Gal(b1-4)]GlcNAc
Method in brief: as §1

[24] = target: Neu5Ac(a2-3)Gal(b1-3)[Neu5Ac(a2-6)]GalNAc
Method in brief: as §1

Neu5Ac(a2-3)Gal(b1-4)Glc = target: Neu5Ac(a2-3)Gal(b1-4)Glc
Method in brief: as §1

[25] = target: Neu5Ac(a2-3)Gal(b1-4)GlcNAc
Method in brief: as §1

[26] = target: Neu5Ac(a2-3)Gal(b1-4)GlcNAc(b1-2)Man(a1-3)[GlcNAc(b1-2)Man(b1-4)GlcNAc(b1-2)Man(a1-6)]Man(b1-4)GlcNAc(b1-4)GlcNAc
Method in brief: as §1

[27] = target: Neu5Ac(a2-3)Gal(b1-4)GlcNAc(b1-2)Man(a1-3)[Neu5Ac(a2-6)Gal(b1-4)GlcNAc(b1-2)Man(a1-6)]Man(b1-4)GlcNAc(b1-4)GlcNAc
Method in brief: as §1

[28] = target: Neu5Ac(a2-3)Gal(b1-4)GlcNAc(b1-3)Gal(b1-3)GlcNAc
Method in brief: as §1

[29] = target: Neu5Ac(a2-3)Gal(b1-4)GlcNAc(b1-3)Gal(b1-4)GlcNAc
Method in brief: as §1

[30] = target: Neu5Ac(a2-3)Gal(b1-4)GlcNAc(b1-3)Gal(b1-4)GlcNAc(b1-3)Gal(b1-4)GlcNAc
Method in brief: as §1

[31] = target: Neu5Ac(a2-3)Gal(b1-4)GlcNAc(b1-3)Gal(b1-4)[Fuc(a1-3)]GlcNAc
Method in brief: as §1

[32] = target: Neu5Ac(a2-3)Gal(b1-4)GlcNAc(b1-6)[Gal(b1-3)]GalNAc
Method in brief: as §1

[33] = target: Neu5Ac(a2-3)Gal(b1-4)GlcNAc(b1-6)[Neu5Ac(a2-3)Gal(b1-3)]GalNAc
Method in brief: as §1

[34] = target: Neu5Ac(a2-3)Gal(b1-4)GlcNAc6S
Method in brief: as §1

B1: Surfactant Protein D (Human); Neck + Carbohydrate Recognition Domain (NCRD) (Homo sapiens) (protein)
chain: MLLFLLSALVLLTQPLGYLEAEMKTYSHRTMPSACTLVMCSSVESGLPGRDRDGREGPRGEKGDPGLPGAAGQAGMPGQAGPVGPKGDNGSVGEPGPKGDTGPSGPPGPPGVPGPAGREGALGKQGNIGPQGKPGPKGEAGPKGEVGAPGMQGSAGARGLAGPKGERGVPGERGVPGNTGAAGSAGAMGPQGSPGARGPPGLKGDKGIPGDKGAKGESGLPDVASLRQQVEALQGQVQHLQAAFSQYKKVELFPNGQSVGEKIFKTAQFVKPFTEAQLLCTQAGGQLASPRSAAENAALQQLVVAKNEAAFLSMTDSKTEGKFTYPTGESLVYSNWAPGEPNDDGGSEDCVEIFTNGKWNDRACGEKALVVCEF
glycan array binding signal (z-score) (GlcNAc(b1-6)GalNAc): -0.812
glycan array binding signal (z-score) (GlcNAc3Prop(b1-4)GlcNAc): -0.229
glycan array binding signal (z-score) (Kdn(a2-3)Gal(b1-3)GlcNAc): -0.048
glycan array binding signal (z-score) (Kdn(a2-3)Gal(b1-4)GlcNAc): -0.324
glycan array binding signal (z-score) [1]: -0.072
glycan array binding signal (z-score) [2]: -0.532
glycan array binding signal (z-score) (Man(a1-2)Man(a1-3)Man): 0.578
glycan array binding signal (z-score) [3]: 0.486
glycan array binding signal (z-score) [4]: 4.48
glycan array binding signal (z-score) [5]: 0.02
glycan array binding signal (z-score) [6]: 1.78
glycan array binding signal (z-score) [7]: 0.757
glycan array binding signal (z-score) [8]: 0.81
glycan array binding signal (z-score) (Man(a1-3)[Man(a1-6)]Man): -0.638
glycan array binding signal (z-score) [9]: 7.39
glycan array binding signal (z-score) [10]: -0.3
glycan array binding signal (z-score) [11]: 0.186
glycan array binding signal (z-score) [12]: -0.486
glycan array binding signal (z-score) (Man(a1-6)Man): -0.447
glycan array binding signal (z-score) (Man(b1-4)GlcNAc): -0.16
glycan array binding signal (z-score) (Neu5Ac(a2-3)Gal): -0.24
glycan array binding signal (z-score) [13]: -0.229
glycan array binding signal (z-score) [14]: -0.379
glycan array binding signal (z-score) [15]: -0.014
glycan array binding signal (z-score) [16]: 0.154
glycan array binding signal (z-score) [17]: 1.43
glycan array binding signal (z-score) [18]: -0.356
glycan array binding signal (z-score) [19]: -0.194
glycan array binding signal (z-score) [20]: -0.691
glycan array binding signal (z-score) [21]: -0.153
glycan array binding signal (z-score) [22]: -0.314
glycan array binding signal (z-score) [23]: 0.238
glycan array binding signal (z-score) [24]: -0.063
glycan array binding signal (z-score) (Neu5Ac(a2-3)Gal(b1-4)Glc): -0.276
glycan array binding signal (z-score) [25]: 0.011
glycan array binding signal (z-score) [26]: 0.008
glycan array binding signal (z-score) [27]: 0.301
glycan array binding signal (z-score) [28]: 0.839
glycan array binding signal (z-score) [29]: -0.19
glycan array binding signal (z-score) [30]: 1.44
glycan array binding signal (z-score) [31]: 0.581
glycan array binding signal (z-score) [32]: -0.637
glycan array binding signal (z-score) [33]: -0.484
glycan array binding signal (z-score) [34]: 0.679

Source: the supplement of paper PMC8728848
